The RNAGym collection of RNA variant scans (doi:10.1093/nar/gkz1192)
The source gives no read counts; variants with many changes may rest on few reads.

B1: CPEB3 Ribozyme (parent)
chain: UAACAGGGGGCCACAGCAGAAGCGUUCACGUCGCAGCCCCUGUCAGAUUCUGGUGAAUCUGCGAAUUCUGCUGUAUAUCUC

Variants of: B1
Assay: self-cleavage, relative activity (ratio to wild type); higher = more cleavage; in vitro, sequencing
Procedure, shortened: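 Relative activity compares each variant's cleaved/total read fraction with that of the unmutated ribozyme. To get these fractions, barcoded CPEB3 ribozyme libraries from rounds of error-prone PCR were transcribed with T7 RNA polymerase for 5 hours at 37°C and then given 15 min of DNase I treatment before EDTA was added. The RNAs were reverse transcribed with template switching and sequenced on Illumina, and DNA sequencing linked barcodes to variants. A minimum of 5 reads applied, and three batches were averaged.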
For CAACAGGGUGCCACAGCAGAAGCGUUCACGUCGCAGCCCUUGUCAGAUUCUGGUGAAUCUGCGAAUUCUGCUUUAAAUCCC [U1C G9U C40U G73U U76A U80C], the self-cleavage was 0.05. Variant CAACAGGGUGCCACAGCAGAAGCGUUCACGUCGCAGCCCCUGCCAGAUUCUGGUGAAUCUGCGAAUUCUGCCGUAUAUCUC [U1C G9U U43C U72C] has a self-cleavage of 0.3. Work on CAACAGGGGACCGCAGCAGAAGCGUUCACGUCGCAGCCCAUGUCAGAUUCUGGUGAAUCUGCGAAUUCUGCUGUAUAUCUC [U1C G10A A13G C40A] yielded a self-cleavage of 0.04. CAACAGGGGACCGCAGCAGAAGCGUUCACGUCGCAGCCCCUGUCAGAUUCUGGCGAAUCUGCGAAUCCUGCUGUAUAUCCC [U1C G10A A13G U54C U67C U80C] showed a self-cleavage of 0.07. With CAACAGGGGACCACCGCAGAAGCGGUCACGUCGCAGCCCCUGUCAGAUUCUGGUGCAUCUGCGAAUUCUGCUGUAUACCUC [U1C G10A A15C U25G A56C U78C] the self-cleavage was 0.05. Variant CAACAGGGGACCACGGCAGAAGCGUUCACGUCGCAGCCCCCGCCAGAUUCUGGUGAAUCUGCGAAUUCUGCUGUAUAUCUC [U1C G10A A15G U41C U43C] has a self-cleavage of 0.1. With CAACAGGGGACCACAGCUGAAGCGUUCACGUCGCAGCCCCCGUCAGAUUCUGGUGAAUCUGCGGAUUCUGCUGUAUAUCAC [U1C G10A A18U U41C A64G U80A] the self-cleavage was 0.03. For CAACAGGGGACCACAGCAGAUGCGCUCACGUCGCAGCCCCUGUCAGAUUCUGGUGAAUCUGCGAAUUCUGCUGUAUUUCUC [U1C G10A A21U U25C A77U], the self-cleavage was 0.04. CAACAGGGGACCACAGCAGAAGCGUUCGCGUCGCAGCCCCUGUCAGAUUCUGGUGAAUCUGCGAAUUCCGCCGUAUAUCUC [U1C G10A A28G U69C U72C] gave a self-cleavage of 0.05. CAACAGGGGACCACAGCAGAAGCGUUCACGUCGCAGCCCCUGUCAGAUUCUGGUGAAUCUGCGAAUUCUGCUGUCUAUCCC [U1C G10A A75C U80C] showed a self-cleavage of 0.31. With CAACAGGGGACCACAGCAGAAGCGUUCAAGUCGCAGCCCCUGUCUGAUUCUGGUGAAUCUGCGAAUUCUGUUGUAUAUCUC [U1C G10A C29A A45U C71U] the self-cleavage was 0.05. CAACAGGGGACCACAGCAGAAGCGUUCACGUCGCAGCCCCUGUGAGAUUCUGGUGGAUCUGCAAAUUCUGCUGUAUAUCUC [U1C G10A C44G A56G G63A] gave a self-cleavage of 0.16. CAACAGGGGACCACAGCAAAAGCGUUCACGUCGCUGCCCCUGUCAGAUUCUGGUGAAUCUGCGAAUUCUGCUGUAUAUCUC [U1C G10A G19A A35U] gave a self-cleavage of 0.21. CAACAGGGGACCACAGCAGAAGCGUUCACGUCGCAGCCCCUGUCAGAUUCUGGUGAAUCUGCGAAUUCUGCCGUAUAUCUC [U1C G10A U72C] showed a self-cleavage of 0.09. Variant CAACAGGGGCCCGCAGCAGAAGCGUUCACGUUGCAGCCCAUGUCAGAUUCAGGUGGAUCUGCGAAUUCUGCUGUAUAUCUC [U1C G10C A13G C32U C40A U51A A56G] has a self-cleavage of 0.05. With CAACAGGGGCCCACAGCAGAAGCGUUCACGACGCAGCCCCUGUCUGAUUCUGGUGAAUCUGCGAAAUCUGCUGAAAAUCUC [U1C G10C U31A A45U U66A U74A U76A] the self-cleavage was 0.07. For CAACAGGGGCCCACAGCAGAAGCGUUCACGCCGCAGCCCCUGUCAGAUUCUGGAGAAUCUGCGAAUUCUGCUGUAUAUCUC [U1C G10C U31C U54A], the self-cleavage was 0.22. CAACAGGGGUCCACAGCAGAAGCGUUCACGUCGCAGCCCUUGUCAGAUUCUGGUGAAUCUGCGAAUUCUGCUGCAUAUCUC [U1C G10U C40U U74C] showed a self-cleavage of 0.24. Work on CAACAGGGGGCCACAACAGAAGCGUUCACGUCGCAGCCCCUGUCAGAUUCUGGUGUAUCUGCGAAUUCUGCUGUAUAUAUC [U1C G16A A56U C79A] yielded a self-cleavage of 0.26. CAACAGGGGGCCACAACAGAAGCGAUCUCGUCGCAGCCCCUGUCAGAUUCAGGAGAAUCUGCGAAUUCUGCUGUAUAUCUC [U1C G16A U25A A28U U51A U54A] showed a self-cleavage of 0.05. In the case of CAACAGGGGGCCACAACAGAAGCGUUCACGACGCAGCAUCUGUCAGAUUCUGGUGAAUCUGCGAAUUCUGCUGUAUAUCUC [U1C G16A U31A C38A C39U], the self-cleavage is reported as 0.04. With CAACAGGGGGCCACACCAGAAGCGUUCACGAAGCAGCCCCUGUCAGAUUCCGGUGAAUCUGCGAAUCCUGCUGUAUAUCUC [U1C G16C U31A C32A U51C U67C] the self-cleavage was 0.12. CAACAGGGGGCCACAUCUGAAGCGUUCACGUCGCAGCCCCUGUCAGAUUCUGGUGAAUCUGCGAAUACUGCUGUAUAUCUC [U1C G16U A18U U67A] gave a self-cleavage of 0.09. CAACAGGGGGCCACAUCAGAAGCGUUCACGUCGCAGCCCCUGUCAGAUUCUGGUGUAUCUGCGAAUUCUGCUGUAUAUCUC [U1C G16U A56U] showed a self-cleavage of 0.09. Variant CAACAGGGGGCCACAUCAGAAGCGUUUACGUCGCAGCCCCUGUCAGAUUCUGGUGAAUCUGCGAAUCCUGCUGUAUGUCUC [U1C G16U C27U U67C A77G] has a self-cleavage of 0.05. Work on CAACAGGGGGCCACAGCAAAGGCGUUCACGUCGCAGCCCCAGUCAGAUACUGGCGAAUCUGCGGAUUCUGCUGUAUAUCUC [U1C G19A A21G U41A U49A U54C A64G] yielded a self-cleavage of 0.05. With CAACAGGGGGCCACAGCAAAAGUGUUCACGUCGCAGCCCCUGUCAGAUACUGGUGAAUCUGCGAAUUCUGCUGUAUAUCAC [U1C G19A C23U U49A U80A] the self-cleavage was 0.05. Work on CAACAGGGGGCCACAGCAUAAGCGUUCACGUCGCCGCCCCUGUCAGAUUCUGGUGAAUCUGCGAAUUCCGCUGUAUAUCCC [U1C G19U A35C U69C U80C] yielded a self-cleavage of 0.06. CAACAGGGGGCCACAGCAUAAGCGUUCACGUCGCAGCCCCUGUCAGUUUCAGGUGAAUCUGCGAAUUCUGCUGUAUAUCUC [U1C G19U A47U U51A] showed a self-cleavage of 0.29. With CAACAGGGGGCCACAGCAUAAGCGUUCACGCCGCAGCCCCUGUCAGAUUCUGGCGAAUCUGCGAGAUCUGCUGUAUAUCUC [U1C G19U U31C U54C A65G U66A] the self-cleavage was 0.04. In the case of CAACAGGGGGCCACAGCAGAAACGUUGACGUCGCAGCCCCUGUCAGAUUCUGGUGAGUCUGCGAAUUCUACUGUAUAACUC [U1C G22A C27G A57G G70A U78A], the self-cleavage is reported as 0.04. Work on CAACAGGGGGCCACAGCAGAAACGUUCACGUCGCAACCCCUGCCAGAUUCUGGUGAAUCUGCGAAUUCUGCUGUAUAUCUC [U1C G22A G36A U43C] yielded a self-cleavage of 0.25. For CAACAGGGGGCCACAGCAGAAACGUUCACGUCGCAGCCCCAGUCAGAUUCUGGCGAAUCUGCGAAUUCCGCUGUAUAUCUC [U1C G22A U41A U54C U69C], the self-cleavage was 0.07. With CAACAGGGGGCCACAGCAGAACCGUUCACGUCGCAGCCCCUGACAGAUCCCGGUGAAUCUGCGAAUUCUGCUGCAUAUCUC [U1C G22C U43A U49C U51C U74C] the self-cleavage was 0.07.
